Test results from paper PMC5515408.
This is one part of the list. At the low end of the ranking the order means little.

Target: MAX:MAX (p21) (UniProt P61244-2)
Assay: protein-binding microarray (anti-MAX antibody)
Conditions: PBM: 15 mM Tris-HCl pH 7.5, 100 mM KCl, 0.075% NP40, 7.5 mM beta-mercaptoethanol, 375 ng/ul BSA, 8 ng/ul poly(dA-dT):(dA-dT), 550 ng complex, 60 min, room …; high values mean tight binding; double strand, one strand shown; sequences stand for … in CCGGC…TTAATAGCTAAGATTACTATATCGACG

| Sequence | binding signal (log2 normalized fluorescence) |
| --- | --- |
| TGAAGCGGCGTA | -0.562 |
| TGAGTCCGCGTA | -0.693 |
| TGAAGAACTGTA | -0.753 |
| TGAACGCGAGTA | 0.406 |
| TGAGCAGCTGTA | 0.361 |
| TGAGTAAAAGTA | -1.27 |
| TGAGCTGGGGTA | -0.306 |
| TGACTACACGTA | 0.596 |
| TGACGGGTCGTA | -0.372 |
| TGAGTTCTCGTA | -1.15 |
| TGATGTGTAGTA | -0.151 |
| TGAGGAACGGTA | -0.678 |
| TGAACGGTTGTA | -0.545 |
| TGACCACGAGTA | 2.66 |
| TGAAAAGGTGTA | -0.00249 |
| TGATATTCCGTA | -1.17 |
| TGAGGAGAGGTA | -0.732 |
| TGGCCCGGGGTA | -0.611 |
| TGACGATTAGTA | -1.08 |
| TGAGAACTCGTA | -0.56 |
| TGACGCAAGGTA | 0.745 |
| TGACAATGTGTA | 1.45 |
| AGACACATGGTA | 3.18 |

| Sequence | binding signal (log2 normalized fluorescence) |
| --- | --- |
| TGAGAAATGGTA | -0.683 |
| TGAAAGGTTGTA | -0.311 |
| TGAGTTACCGTA | -0.943 |
| TGTCGCGTCGTA | -0.202 |
| TGACAGCGCGTA | 0.475 |
| TGAATTGGCGTA | -0.782 |
| CCGCCAAAGCAT | 0.154 |
| TGACTGGACGTA | -0.42 |
| TGACTGGTAGTA | -0.671 |
| TGATCTATCGTA | -1.08 |
| TGAGGAAGTGTA | -0.651 |
| TGATACAAGGTA | -0.607 |
| TGAGCTGTGGTA | -0.413 |
| TGAATTAACGTA | -0.724 |
| TGACTCGACGTA | -0.42 |
| TGACGTTCAGTA | -0.529 |
| TGAGTATTAGTA | -0.932 |
| TGAATTGTCGTA | -0.633 |
| TGATTACTAGTA | -0.993 |
| TGACACATGGAA | 3.03 |
| CCTGTGCTGAGC | 1.87 |
| TGAATGCGCGTA | 0.739 |
| TGACGAGGGGTA | 0.572 |

| Sequence | binding signal (log2 normalized fluorescence) |
| --- | --- |
| TGAGCGCCGGTA | -0.538 |
| TGACCCCACGTA | 0.684 |
| TGACTCGTAGTG | -0.821 |
| TGAATGCCAGTA | -0.0193 |
| TGACCCAACGTA | -0.297 |
| TGATGACTCGTA | 0.427 |
| TGACACGTGTTG | 3.32 |
| TGAGTGTTAGTA | -0.0639 |
| TGACACTTGCTG | 0.64 |
| TGACGCTAGGTA | -0.628 |
| TGACGGTCAGTA | -0.24 |
| TGATTTATTGTA | -0.965 |
| TGATGTACAGTA | -0.00798 |
| TGACGTGTCGTA | 1.07 |
| TGACAACCTGTA | 0.714 |
| TGCAACGTGGTA | 3.07 |
| TGACTACTCGTA | -0.414 |
| TGAATTTGGGTA | -1.17 |
| TGACGGGGTGTA | 0.602 |
| TGAATGGGTGTA | 0.375 |
| TGAGGAGGGGTA | 1.06 |
| TGACTCCTGATA | -0.197 |
| TGACACGCCCTA | 2.49 |

| Sequence | binding signal (log2 normalized fluorescence) |
| --- | --- |
| TGAATGGAAGTA | 0.319 |
| TGACGTTGCGTA | 0.026 |
| TGACACGTGCAC | 3.13 |
| TGAGTAGCCGTA | -1.24 |
| TGATTCAAGGTA | -0.736 |
| TGATTTCGAGTA | -0.909 |
| TGACAACACGTA | 0.856 |
| AATACAGCTTAC | 0.359 |
| TGACACGTGTGT | 3.37 |
| TGAGGCCCCGTA | -0.911 |
| TGAACGGTAGTA | -0.717 |
| TGACGCAAAGTA | -0.646 |
| TGAGCCACCGTA | -0.374 |
| TGACTACGGGTA | -0.601 |
| TGAGCCAAGGTA | -0.781 |
| TGGGCACCCATT | 0.0618 |
| TGACACCGAGTA | 0.12 |
| TGACGGAGTGTA | -0.121 |
| TGATGATTGGTA | -0.267 |
| TGAGGCGACGTA | -0.682 |
| TGAGCCGCGGTA | -0.96 |
| TGATGCTATGTA | -0.213 |
| TGACCTACAGTA | -0.385 |

| Sequence | binding signal (log2 normalized fluorescence) |
| --- | --- |
| TGAGCGCATGTA | 2.64 |
| TGACACGTGAAA | 3.09 |
| TGACCACACGTA | 1.68 |
| TTACACGATGTA | 2.37 |
| GAGCACGTGGTA | 3 |
| TGAGTAGCGGTA | -0.976 |
| TGACAAAGCGTA | -0.663 |
| TGACTGATAGTA | -0.253 |
| TGAGGATCAGTA | -0.828 |
| TGATAGCATGTA | 1.69 |
| TGATCTACCGTA | -1.27 |
| TGAAATGTGTTA | 1.65 |
| TGACGTGGCGTA | 1.44 |
| TGATTCTTCGTA | -1.26 |
| TGACACGTCGTA | 1.79 |
| TGAAATCCGGTA | -1.23 |
| CGACACGCGGTT | 3.18 |
| AGACACTTGGTA | 1.06 |
| TGAGAACAAGTA | -0.676 |
| TGACAATTAGTA | -0.824 |
| TGAGCAGGCGTA | 0.16 |
| TGATGACCCGTA | 0.112 |
| TGAGACGTGGGA | 0.979 |

| Sequence | binding signal (log2 normalized fluorescence) |
| --- | --- |
| CGACTAGTGGTA | -0.455 |
| TGAGGGAGTGTA | -0.256 |
| TGAACGTAGGTA | -0.389 |
| TGACTGGGCGTA | -0.479 |
| TGACTAACCGTA | -0.733 |
| TGAAGCCGGGTA | -0.857 |
| TGACGGAACGTA | -0.575 |
| TGAAAGGCCGTA | -0.667 |
| TGACATATGGTA | 2.15 |
| TGATAATTAGTA | -1.33 |
| TGAATGATGGTA | 0.458 |
| TGAGTACGGGTA | -0.89 |
| TGATGTGCTGTA | 0.725 |
| TGAGGCGCAGTA | -0.509 |
| TGATCTCCGGTA | -1.13 |
| TGAGACTCCGTA | -0.692 |
| TGACCGTACGTA | -0.426 |
| TGAACTAGTGTA | -0.473 |
| TGATTAGACGTA | -0.973 |
| TGAACCAGGGTA | -0.134 |
| TGAAGATCGGTA | -0.799 |
| TTATACGTGGTA | 1.14 |
| TGACAGGCCGTA | 0.495 |
